# In PubChem BioAssay AID1478 (National Center for Advancing Translational Sciences (NCATS), 2009):
# Among all 200,000 compounds or so, about 860 (0.43%) were called active. Inconclusive results, whose numbers are uncertain, are shown with a selection of clear calls. The call rests on the fitted dose curve; in most records, active means well fitted inhibition curve with a large enough effect; inconclusive means small, poorly fitted or top-dose-only effect; inactive means flat fitted curve, though single readings scatter. Potencies of inconclusive entries are doubtful fits and often do not repeat.
# Target: Cruzipain (Trypanosoma cruzi) (UniProt P25779)
# Assay: qHTS Assay for Promiscuous and Specific Inhibitors of Cruzain (with detergent); further: nearly all actives have a fitted effect of over 40% in size;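 on max response, negative = inhibition: plate controls were neutral wells for no effect and buffer without enzyme for full effect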
# Conditions: purified cruzain, Z-FR-AMC fluorescence, 0.01% Triton
# In short: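 Cysteine protease activity tested under reducing, mildly acidic conditions (100 mM sodium acetate pH 5.5, 5 mM DTT) plus 0.01% Triton X-100. Cruzain 1.5 nM; substrate Z-FR-AMC 2 uM; 15 min compound preincubation at room temperature.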
# Potency means the concentration at half of the fitted maximal effect; tags describe the fitted curve by direction and shape.
# Sequence of UniProt P25779 (P25779 whole entry, looked up): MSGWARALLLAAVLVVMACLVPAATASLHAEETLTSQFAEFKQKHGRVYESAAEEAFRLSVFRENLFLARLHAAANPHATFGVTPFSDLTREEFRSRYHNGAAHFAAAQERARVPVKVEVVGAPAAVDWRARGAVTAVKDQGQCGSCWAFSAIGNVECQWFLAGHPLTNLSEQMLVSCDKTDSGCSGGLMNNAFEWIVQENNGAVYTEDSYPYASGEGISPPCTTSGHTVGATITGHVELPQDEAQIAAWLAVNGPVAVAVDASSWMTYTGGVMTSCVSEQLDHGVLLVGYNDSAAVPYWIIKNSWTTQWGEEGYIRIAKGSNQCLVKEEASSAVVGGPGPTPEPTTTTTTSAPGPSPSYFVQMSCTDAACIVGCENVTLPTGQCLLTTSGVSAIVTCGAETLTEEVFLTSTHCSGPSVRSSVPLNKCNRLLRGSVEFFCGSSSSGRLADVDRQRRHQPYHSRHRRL
SMILES,"max response, negative = inhibition",Potency
COc1ccc2oc(-c3ccc(C)c(NC(=O)c4ccc(-c5ccccc5[N+](=O)[O-])o4)c3)nc2c1,inactive: -1.65%,–
CCOc1ccc(NC(=O)C2CC(=O)NC(=Nc3ccc(Cl)c(Cl)c3)S2)cc1 (stereo not given),–,"inconclusive: 6.31 µM [inhibitor, partial curve]"
O=C(O)[C@H](Cc1cnc[nH]1)N1C(=O)c2ccccc2C1=O,inactive: 2.88%,–
COc1ccc2nc(C)cc(SCC(=O)N/N=C/c3cccc4ccccc34)c2c1,–,"inconclusive: 31.6 µM [inhibitor, single point]"
COCCCn1c(=N)c(C(=O)NCc2ccco2)cc2c(=O)n3ccccc3nc21,–,"inconclusive: 28.2 µM [inhibitor, single point]"
COc1ccc(S(=O)(=O)Nc2ccccc2C(=O)NCc2ccco2)cc1Br,–,"inconclusive: 31.6 µM [inhibitor, single point]"
Cc1ccc(/C=C/C(=O)NC2CCCCCCC2)o1,–,active: 22.4 µM
COCCn1c(CCC(=O)Nc2ccc(OC)c(OC)c2)nc2cccnc21,inactive: -0.467%,–
O=C(CS(=O)(=O)c1nc(-c2ccc(Cl)cc2)cn1-c1ccccc1)Nc1cccc(Cl)c1,–,"inconclusive: 14.1 µM [inhibitor, partial curve]"
CC(=O)c1ccc(NC(=S)NC(NC(=O)c2ccco2)C(Cl)(Cl)Cl)cc1 (stereo not given),–,"inconclusive: 6.31 µM [inhibitor, partial curve]"
CCCn1c(CCNC(=O)c2cccs2)nc2ccccc21,–,active: 15.8 µM
S=C(Cc1cccnc1)N1CCOCC1,–,"inconclusive: 28.2 µM [inhibitor, single point]"
Cc1csc(N/N=C/c2ccc(O)c([N+](=O)[O-])c2)n1,–,active: 7.08 µM
O=C(NCc1ccccc1Cl)C(=O)NCC(c1cccs1)S(=O)(=O)c1ccccc1 (stereo not given),inactive: -6.6%,–
CCOC(=O)c1c(C)[nH]c(C(=O)COC(=O)CCS(=O)(=O)c2ccc(C)cc2)c1C,–,"inconclusive: 14.1 µM [inhibitor, partial curve]"
CCOC(=O)c1ccc(/C=C2/C=C(c3ccccc3)N(c3ccc(Cl)c(C(=O)O)c3)C2=O)cc1,–,"inconclusive: 28.2 µM [inhibitor, single point]"
O=C(c1ccc(Cl)c(Cl)c1)N1CCC(=O)N(C(COCc2cccc(C(F)(F)F)c2)Cc2ccccc2)CC1 (stereo not given),–,"inconclusive: 15.8 µM [inhibitor, single point]"
O=C(NCCCN1CCN(c2ccc(F)cc2)CC1)c1ccc2nc(Cc3ccccc3)oc2c1,inactive: -0.741%,–
C=CCn1c(=O)c2ccccc2n2c(SCc3nc(N)nc(Nc4ccccc4C)n3)nnc12,inactive: 4.85%,–
Cc1ccc(C(=O)OC2=CC(=O)CC(C)(C)C2)cc1,–,"inconclusive: 25.1 µM [inhibitor, single point]"
COc1ccc2c(c1)c1nnc(SCC(=O)N3C(C)CCCC3C)nc1n2C (stereo not given),–,active: 17.8 µM
CC1CCCN(c2oc(-c3cccc4ccccc34)nc2C#N)C1 (stereo not given),–,"inconclusive: 39.8 µM [inhibitor, single point]"

SMILES,"max response, negative = inhibition",Potency
COc1ccc(CN2CCN(c3ncnc4sc5c(c34)CC(C)CC5)CC2)cc1F (stereo not given),–,"inconclusive: 39.8 µM [inhibitor, single point]"
CCc1nn(Cc2cc(C)ccc2C)c(=O)c2cc3cc(C)ccc3n12,inactive: -0.0071%,–
Cc1ccc2nc(N3C(=O)C(O)=C(C(=O)c4ccco4)C3c3cccs3)sc2c1 (stereo not given),–,"inconclusive: 28.2 µM [inhibitor, single point]"
Cc1nc(NC(=O)COC(=O)CCS(=O)(=O)c2ccccc2Cl)c(Cl)cc1Cl,–,active: 22.4 µM
COc1cc(OC)c(OC)cc1/C=N/NC(=O)C[n+]1ccccc1,inactive: -4.66%,–
O=C(CNC(=O)/C(=C\c1ccc(Br)cc1)NC(=O)c1ccccc1)OCc1ccccc1,–,active: 10 µM
O=C(Nc1ccc2oc(-c3ccncc3)nc2c1)c1cccs1,–,"inconclusive: 28.2 µM [inhibitor, single point]"
Cc1ccc(SCCNC(=S)Nc2cc(C)cc(C)c2)cc1,–,"inconclusive: 1.58 µM [inhibitor, full curve, poor fit]"
COc1cccc(Nc2nc(-c3sc(N)nc3C)cs2)c1,–,"inconclusive: 7.94 µM [inhibitor, single point]"
COc1cc(C(=O)NCC(c2cccs2)S(=O)(=O)c2cccs2)cc(OC)c1OC (stereo not given),inactive: -0.256%,–
O=C(COC(=O)CNS(=O)(=O)c1ccc2ccccc2c1)Nc1ccccc1Sc1ccccc1,–,"inconclusive: 11.2 µM [inhibitor, partial curve]"
O=C(Nc1ccc(-c2nc3cc(Cl)ccc3c(=O)o2)cc1)c1ccco1,–,"inconclusive: 22.4 µM [inhibitor, partial curve]"
Cc1noc(NS(=O)(=O)c2ccc(NC(=O)CSc3nnc4c(n3)[nH]c3ccccc34)cc2)c1C,–,"inconclusive: 25.1 µM [inhibitor, single point]"
COCc1nc2ccccc2n1CCOc1cccc(C)c1,inactive: 1.1%,–
CCc1nnc(NC(=O)CSc2nc3c(c(=O)n2-c2ccccc2OC)SCC3)s1,–,"inconclusive: 31.6 µM [inhibitor, single point]"
COc1cccc(-c2cc(=O)c3ccc(OC)cc3o2)c1,–,"inconclusive: 25.1 µM [inhibitor, single point]"
O=C1OC(/C=C/c2ccc(Cl)cc2Cl)=NC/1=C\c1cccs1,–,"inconclusive: 2.51 µM [inhibitor, full curve, poor fit]"
Cc1ccc(N2CC(NC(=O)c3cccs3)CC2=O)cc1C (stereo not given),inactive: 0.0582%,–
COc1cccc(C2CC(c3cccs3)=NN2C(=O)CSc2nc3ccccc3s2)c1OC (stereo not given),–,"inconclusive: 2.82 µM [inhibitor, full curve]"
Cc1snc(S(=O)(=O)/C(C#N)=N\Nc2ccccc2)c1C#N,–,"inconclusive: 28.2 µM [inhibitor, single point]"
COCCCNc1nc2c(c(=O)n(Cc3ccc(F)cc3)c(=O)n2C)n1C,–,"inconclusive: 35.5 µM [inhibitor, single point]"
COc1cc(C(=O)NCC(c2ccco2)S(=O)(=O)c2cccs2)cc(OC)c1OC (stereo not given),inactive: -0.515%,–

SMILES,"max response, negative = inhibition",Potency
O=C1C(SCCO)=C(SCCO)C(=O)c2ccccc21,–,"inconclusive: 28.2 µM [inhibitor, single point]"
O=C(NCc1ccc2c(c1)CCN2C(=O)c1ccccc1)c1cc2ccccc2[nH]1,inactive: 4.94%,–
C=CC1=C(C)C2=NC1=CC1=NC(=CC3=NC(=CC4=NC(=C2)C(C)=C4CCC(=O)O)C(CCC(=O)O)=C3C)C(C=C)=C1C.[Zn],–,"inconclusive: 31.6 µM [inhibitor, partial curve, poor fit]"
Cc1ccc2nc(SC(C)C(=O)Nc3cccc([N+](=O)[O-])c3)[nH]c2c1 (stereo not given),–,"inconclusive: 15.8 µM [inhibitor, partial curve]"
CCN1CC=C2C(C#N)=C(N)C(C#N)(C#N)C(c3cc(Cl)ccc3Cl)C2C1 (stereo not given),–,"inconclusive: 28.2 µM [inhibitor, single point]"
CC(=O)N1CCc2cc(Br)cc(S(=O)(=O)N3CCN(c4cc(C)ccc4C)CC3)c21,inactive: 1.72%,–
CCc1nnc(NS(=O)(=O)c2ccc(NC(=S)NC(=O)c3ccc(OC)cc3)cc2)s1,–,"inconclusive: 35.5 µM [inhibitor, single point]"
CC(C)C(NS(=O)(=O)c1ccc2c(c1)oc(=O)n2C)C(=O)N1CCN(Cc2ccccc2)CC1 (stereo not given),–,"inconclusive: 25.1 µM [inhibitor, single point]"
Cc1nn(C(C)C(=O)NCc2cccc(F)c2)c(=O)c2c1sc1ccccc12 (stereo not given),–,"inconclusive: 15.8 µM [inhibitor, partial curve]"
O=C(O)CCn1cc(/C=C/C(=O)c2ccc(Cl)cc2)c(-c2ccc(Br)cc2)n1,–,"inconclusive: 22.4 µM [inhibitor, single point]"
CCC(C)NC(=O)c1ccc2c(SCC(=O)O)c3c(nc2c1)CCCC3 (stereo not given),–,"inconclusive: 31.6 µM [inhibitor, single point]"
CC(=O)c1c(O)c(C)c(O)c(Cc2c(O)c3c(c(C(=O)/C=C\c4ccccc4)c2O)OC(C)(C)C=C3)c1O,–,active: 31.6 µM
N#CC1=C(SCC(=O)c2ccccc2)NC2=C(C(=O)CCC2)C1c1ccco1 (stereo not given),–,"inconclusive: 17.8 µM [inhibitor, single point]"
Cc1ccc2[nH]c3c(N4CCc5ccccc5C4)ncnc3c2c1,–,"inconclusive: 14.1 µM [inhibitor, partial curve]"
CC(=O)N1CC[n+]2c(-c3ccc(Cl)cc3)csc21,–,"inconclusive: 25.1 µM [inhibitor, single point]"
CCCCc1cc(=O)oc2c(CN(C)C)c(O)c(Cl)cc12,–,"inconclusive: 35.5 µM [inhibitor, single point]"
Cc1no[n+]([O-])c1COc1cccc(/C=C2\N=C(c3ccccc3)OC2=O)c1,–,"inconclusive: 3.55 µM [inhibitor, full curve]"
Cc1ccc(NC(=O)CC2SC(=O)N(c3ccccc3)C2=O)cc1 (stereo not given),–,"inconclusive: 31.6 µM [inhibitor, single point]"
CCCCCc1c2c(cc(O)c1C(=O)O)OC(=O)c1cc(C(=O)CCCC)c(OC)cc1O2,–,active: 17.8 µM
O=c1c(O)cc(C2Oc3cc(O)cc(O)c3CC2O)cc2c(C3Oc4cc(O)cc(O)c4CC3O)cc(O)c(O)c12 (stereo not given),–,active: 25.1 µM
COc1ccc(C/C(C)=N/NC(=S)Nc2ccccc2)cc1,–,"inconclusive: 5.01 µM [inhibitor, partial curve]"
